Measured values from paper PMC4081100.
The entries are a selection whose mix differs from that of the whole data set. For part of these data: At the low end of the ranking the order means little. This is one part of the list. For part of these data: The source does not settle which construct or isoform was used.

Experiments:
Assay in all cases: universal protein binding microarray (PBM)
Conditions in all cases: transcription factors of Arabidopsis thaliana; high values mean tight binding; most listed sequences are background and not binding sites; double strand, one strand shown
[1] = biological target: T1, GST-ANAC092(1-176) (UniProt Q9FKA0)
T1 sequence: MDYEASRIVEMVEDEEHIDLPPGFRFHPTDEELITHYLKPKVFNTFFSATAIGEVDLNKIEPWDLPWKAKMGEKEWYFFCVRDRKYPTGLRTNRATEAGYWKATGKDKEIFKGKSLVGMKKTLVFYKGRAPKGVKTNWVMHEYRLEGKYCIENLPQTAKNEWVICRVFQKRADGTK

[2] = biological target: GST-NTL6(1-168) (UniProt Q9SCK6)
[3] = biological target: T2, GST-ANAC055(1-171) (UniProt Q9LDY8)
T2 sequence: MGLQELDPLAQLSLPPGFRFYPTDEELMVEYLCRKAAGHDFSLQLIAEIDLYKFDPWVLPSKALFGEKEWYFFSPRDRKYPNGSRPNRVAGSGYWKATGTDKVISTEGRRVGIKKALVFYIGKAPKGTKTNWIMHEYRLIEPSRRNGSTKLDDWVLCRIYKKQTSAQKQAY

[4] = biological target: T3, GST-ATAF1 NAC domain (UniProt Q39013)
T3 sequence: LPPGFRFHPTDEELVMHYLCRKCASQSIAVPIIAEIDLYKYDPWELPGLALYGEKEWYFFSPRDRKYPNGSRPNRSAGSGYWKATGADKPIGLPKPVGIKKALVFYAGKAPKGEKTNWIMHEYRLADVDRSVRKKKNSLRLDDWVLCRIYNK

[5] = biological target: T4, GST-ANAC092(1-285) full length (UniProt Q9FKA0)
T4 sequence: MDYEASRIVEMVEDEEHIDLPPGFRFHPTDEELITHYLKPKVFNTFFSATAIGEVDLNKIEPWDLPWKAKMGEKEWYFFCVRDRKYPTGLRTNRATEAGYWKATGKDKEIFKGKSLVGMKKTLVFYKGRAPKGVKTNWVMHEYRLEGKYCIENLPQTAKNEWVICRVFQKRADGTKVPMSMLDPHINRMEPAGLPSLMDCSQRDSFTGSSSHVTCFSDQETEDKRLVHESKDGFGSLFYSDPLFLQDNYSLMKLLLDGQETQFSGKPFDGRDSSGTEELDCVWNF

[6] = biological target: T5, GST-NAP(1-166) (UniProt O49255)
T5 sequence: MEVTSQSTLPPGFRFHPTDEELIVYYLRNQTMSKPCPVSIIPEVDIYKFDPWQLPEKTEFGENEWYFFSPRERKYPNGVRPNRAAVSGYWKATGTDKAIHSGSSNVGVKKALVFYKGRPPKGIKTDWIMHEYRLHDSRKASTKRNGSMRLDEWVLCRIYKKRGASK

[7] = biological target: T6, GST-NST2(1-184) (UniProt Q9M274)
T6 sequence: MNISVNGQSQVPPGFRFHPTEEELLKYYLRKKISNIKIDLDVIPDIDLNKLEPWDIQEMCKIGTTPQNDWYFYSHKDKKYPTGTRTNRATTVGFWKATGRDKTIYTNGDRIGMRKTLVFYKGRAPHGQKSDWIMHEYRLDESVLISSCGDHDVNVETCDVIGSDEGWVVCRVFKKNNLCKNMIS

[8] = biological target: T7, GST-NTL8 NAC domain (UniProt Q9XIN7)
T7 sequence: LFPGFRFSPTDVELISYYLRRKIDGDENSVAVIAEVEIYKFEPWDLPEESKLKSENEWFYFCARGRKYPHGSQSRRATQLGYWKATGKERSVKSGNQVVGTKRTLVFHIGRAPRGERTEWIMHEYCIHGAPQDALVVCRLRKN

[9] = biological target: T8, GST-SND1(1-203) (UniProt Q9LPI7)
T8 sequence: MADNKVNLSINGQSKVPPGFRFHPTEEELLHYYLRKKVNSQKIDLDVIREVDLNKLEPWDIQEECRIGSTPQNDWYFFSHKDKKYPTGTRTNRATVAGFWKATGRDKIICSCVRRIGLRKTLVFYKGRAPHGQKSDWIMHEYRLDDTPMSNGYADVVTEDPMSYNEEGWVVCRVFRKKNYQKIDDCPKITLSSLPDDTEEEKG

[10] = biological target: T9, GST-VND3 NAC domain (UniProt Q9FH59)
T9 sequence: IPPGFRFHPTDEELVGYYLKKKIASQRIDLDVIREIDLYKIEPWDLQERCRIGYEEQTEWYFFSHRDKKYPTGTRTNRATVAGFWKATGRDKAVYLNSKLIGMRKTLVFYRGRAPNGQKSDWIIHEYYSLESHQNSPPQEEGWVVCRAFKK

[11] = biological target: T10, GST-VND7 NAC domain (UniProt Q9C8W9)
T10 sequence: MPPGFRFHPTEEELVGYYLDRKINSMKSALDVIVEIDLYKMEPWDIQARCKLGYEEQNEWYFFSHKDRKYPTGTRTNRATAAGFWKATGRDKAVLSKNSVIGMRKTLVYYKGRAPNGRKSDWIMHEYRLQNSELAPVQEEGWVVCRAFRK

[12] = biological target: T11, GST-VOZ2 (Arabidopsis thaliana) (UniProt Q9SLB9)
T11 sequence: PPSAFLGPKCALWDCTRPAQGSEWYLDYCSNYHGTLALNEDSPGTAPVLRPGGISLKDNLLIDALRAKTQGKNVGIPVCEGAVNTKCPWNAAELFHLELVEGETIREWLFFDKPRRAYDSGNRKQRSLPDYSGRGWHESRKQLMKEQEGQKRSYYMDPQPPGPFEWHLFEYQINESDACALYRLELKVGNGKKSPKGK

[13] = biological target: GST-WRKY1(266-371) (UniProt Q9SI37)
[14] = biological target: T12, GST-ANAC019 NAC domain (UniProt Q9C932)
T12 sequence: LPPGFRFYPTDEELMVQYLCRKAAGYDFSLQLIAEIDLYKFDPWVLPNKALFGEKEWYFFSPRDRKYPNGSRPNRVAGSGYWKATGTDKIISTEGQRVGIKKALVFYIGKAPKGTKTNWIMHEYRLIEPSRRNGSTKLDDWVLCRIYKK

GAAGACCA
binding signal [1]: -0.00746 E-score | binding signal [2]: 0.0358 E-score | binding signal [3]: 0.0169 E-score | binding signal [4]: -0.032 E-score | binding signal [5]: -0.0808 E-score | binding signal [6]: -0.0803 E-score | binding signal [7]: 0.0268 E-score | binding signal [8]: -0.054 E-score | binding signal [9]: -0.0759 E-score | binding signal [10]: -0.035 E-score | binding signal [11]: 0.00769 E-score | binding signal [12]: -0.0942 E-score | binding signal [13]: 0.442 E-score

TCTGACCA
binding signal [1]: -0.119 E-score | binding signal [2]: -0.0722 E-score | binding signal [14]: -0.0772 E-score | binding signal [3]: -0.0606 E-score | binding signal [4]: -0.073 E-score | binding signal [5]: -0.102 E-score | binding signal [6]: -0.133 E-score | binding signal [7]: -0.0231 E-score | binding signal [8]: -0.184 E-score | binding signal [9]: -0.0429 E-score | binding signal [10]: -0.0254 E-score | binding signal [11]: -0.044 E-score | binding signal [12]: -0.04 E-score | binding signal [13]: 0.456 E-score

AATTGACT
binding signal [1]: -7e-05 E-score | binding signal [2]: 0.0713 E-score | binding signal [14]: 0.0203 E-score | binding signal [6]: -0.112 E-score | binding signal [8]: 0.0197 E-score | binding signal [9]: 0.0673 E-score | binding signal [10]: 0.0199 E-score | binding signal [11]: -0.0374 E-score | binding signal [12]: 0.0443 E-score | binding signal [13]: 0.46 E-score

GCTGACTA
binding signal [1]: -0.0502 E-score | binding signal [2]: -0.186 E-score | binding signal [14]: 0.00334 E-score | binding signal [3]: -0.141 E-score | binding signal [4]: 0.0088 E-score | binding signal [5]: -0.0256 E-score | binding signal [6]: -0.111 E-score | binding signal [7]: -0.163 E-score | binding signal [8]: 0.00179 E-score | binding signal [9]: -0.00275 E-score | binding signal [10]: -0.0961 E-score | binding signal [11]: -0.0899 E-score | binding signal [12]: -0.0876 E-score | binding signal [13]: 0.417 E-score

AGGTCAAC
binding signal [1]: -0.00624 E-score | binding signal [2]: -0.0571 E-score | binding signal [14]: -0.0447 E-score | binding signal [3]: 0.0328 E-score | binding signal [5]: 0.0146 E-score | binding signal [6]: -0.0814 E-score | binding signal [7]: -0.0323 E-score | binding signal [8]: 0.0726 E-score | binding signal [9]: -0.0285 E-score | binding signal [10]: -0.115 E-score | binding signal [11]: -0.0694 E-score | binding signal [12]: -0.0449 E-score | binding signal [13]: 0.492 E-score

GGTCAACA
binding signal [1]: 0.0365 E-score | binding signal [2]: -0.0553 E-score | binding signal [14]: -0.107 E-score | binding signal [3]: -0.0249 E-score | binding signal [4]: 0.0175 E-score | binding signal [5]: 0.00353 E-score | binding signal [6]: -0.0432 E-score | binding signal [7]: 0.0705 E-score | binding signal [8]: -0.118 E-score | binding signal [9]: -0.03 E-score | binding signal [10]: -0.102 E-score | binding signal [11]: -0.139 E-score | binding signal [12]: 0.019 E-score | binding signal [13]: 0.493 E-score

GTCAAGGA
binding signal [1]: -0.0355 E-score | binding signal [2]: -0.089 E-score | binding signal [14]: 0.0169 E-score | binding signal [3]: -0.12 E-score | binding signal [4]: -0.0867 E-score | binding signal [5]: -0.00417 E-score | binding signal [6]: 0.027 E-score | binding signal [7]: -0.0707 E-score | binding signal [8]: -0.0126 E-score | binding signal [9]: -0.0649 E-score | binding signal [10]: -0.147 E-score | binding signal [11]: -0.136 E-score | binding signal [12]: -0.166 E-score | binding signal [13]: 0.455 E-score

GTCGTCAA
binding signal [1]: -0.0752 E-score | binding signal [2]: -0.108 E-score | binding signal [14]: -0.0529 E-score | binding signal [3]: -0.00743 E-score | binding signal [4]: -0.0166 E-score | binding signal [5]: -0.106 E-score | binding signal [7]: 0.0246 E-score | binding signal [8]: -0.0686 E-score | binding signal [9]: -0.0788 E-score | binding signal [10]: -0.0964 E-score | binding signal [11]: -0.0592 E-score | binding signal [12]: 0.0367 E-score | binding signal [13]: 0.424 E-score

CACGGCTC
binding signal [1]: -0.005 E-score | binding signal [2]: -0.233 E-score | binding signal [14]: 0.42 E-score | binding signal [7]: -0.114 E-score | binding signal [8]: -0.0938 E-score | binding signal [9]: -0.0669 E-score | binding signal [10]: 0.337 E-score | binding signal [11]: 0.377 E-score | binding signal [12]: -0.109 E-score | binding signal [13]: -0.0849 E-score

CGAGTCAA
binding signal [1]: -0.124 E-score | binding signal [2]: -0.13 E-score | binding signal [14]: -0.0158 E-score | binding signal [3]: -0.0555 E-score | binding signal [4]: 0.00285 E-score | binding signal [5]: -0.129 E-score | binding signal [6]: -0.17 E-score | binding signal [7]: -0.0533 E-score | binding signal [8]: -0.00235 E-score | binding signal [9]: -0.0903 E-score | binding signal [10]: -0.0396 E-score | binding signal [11]: -0.0345 E-score | binding signal [12]: -0.0686 E-score | binding signal [13]: 0.477 E-score

CAGTTGAC
binding signal [1]: 0.00432 E-score | binding signal [2]: -0.0477 E-score | binding signal [14]: 0.135 E-score | binding signal [4]: 0.112 E-score | binding signal [5]: -0.113 E-score | binding signal [6]: 0.0525 E-score | binding signal [7]: 0.0574 E-score | binding signal [8]: -0.0966 E-score | binding signal [9]: -0.0327 E-score | binding signal [10]: -0.0214 E-score | binding signal [11]: 0.0244 E-score | binding signal [12]: 0.0545 E-score | binding signal [13]: 0.477 E-score

CTGACCAA
binding signal [1]: -0.0802 E-score | binding signal [2]: -0.0481 E-score | binding signal [14]: 0.00376 E-score | binding signal [3]: -0.0282 E-score | binding signal [4]: 0.0192 E-score | binding signal [5]: -0.0851 E-score | binding signal [6]: -0.151 E-score | binding signal [7]: -0.0464 E-score | binding signal [8]: -0.0782 E-score | binding signal [9]: -0.118 E-score | binding signal [10]: -0.0124 E-score | binding signal [11]: -0.0774 E-score | binding signal [12]: 0.0163 E-score | binding signal [13]: 0.427 E-score
